The whole screen tested about 45,000 compounds, of which about 65 (0.1%) were called active. The call rests on the fitted dose curve; in most records, active means well fitted activation curve with a large enough effect; inconclusive means small, poorly fitted or top-dose-only effect; inactive means no such curve, though single readings can be large or run the other way. This is one part of the list.
Molecular target: Galactocerebrosidase (Homo sapiens) (UniProt P54803)
Assay: A Novel Cell-Based Assay to Identify Small Molecules for B -Galactocerebrosidase; further: 0% is about no effect; nearly all actives have a fitted effect of over 65% in size
Details: 145M-Twi-hGALC-G270D cells (Twitcher mouse brain line with human GALC G270D), HMU-beta-Gal fluorescence, 48 h; series mostly up to 57.5 µM; activation: at the top concentration
How it was run: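 Brain-derived Twitcher mouse 145M-Twi cells stably expressing human GALC-G270D or wild-type GALC, treated live, then residual GALC activity read by fluorescence of HMU-b-Gal substrate (0.1 mM final) in citrate-phosphate buffer pH 5.2 with sodium taurocholate. Signal increase indicates enhancement.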

Sequence of UniProt P54803 (P54803 whole entry, looked up): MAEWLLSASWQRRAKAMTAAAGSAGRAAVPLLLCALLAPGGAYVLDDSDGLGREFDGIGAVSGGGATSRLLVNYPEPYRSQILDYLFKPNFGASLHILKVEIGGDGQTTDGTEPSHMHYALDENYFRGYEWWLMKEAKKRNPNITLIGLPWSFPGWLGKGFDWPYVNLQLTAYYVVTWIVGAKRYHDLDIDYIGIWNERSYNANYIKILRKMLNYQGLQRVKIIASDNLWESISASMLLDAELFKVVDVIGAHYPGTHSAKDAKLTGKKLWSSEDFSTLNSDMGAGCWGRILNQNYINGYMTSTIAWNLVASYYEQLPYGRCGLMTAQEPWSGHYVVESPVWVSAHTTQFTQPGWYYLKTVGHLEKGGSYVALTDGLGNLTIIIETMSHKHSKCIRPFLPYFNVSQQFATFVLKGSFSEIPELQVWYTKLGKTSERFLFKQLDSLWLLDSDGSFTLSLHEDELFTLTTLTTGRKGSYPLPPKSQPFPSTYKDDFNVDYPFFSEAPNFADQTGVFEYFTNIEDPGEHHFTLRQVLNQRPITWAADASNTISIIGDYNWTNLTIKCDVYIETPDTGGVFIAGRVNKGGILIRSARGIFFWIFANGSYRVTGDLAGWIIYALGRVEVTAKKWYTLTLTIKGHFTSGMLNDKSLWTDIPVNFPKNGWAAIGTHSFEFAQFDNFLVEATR

activation, inactive:
CC1CCC(NC(=O)C2(C)Cc3ccccc3C(=O)N2Cc2ccc(F)cc2)CC1 (stereo not given) -8.68%
CCc1ccc(C2Sc3ccccc3NC3=C2C(=O)c2ccccc23)cc1 (stereo not given) -10.1%
COc1ccc(NC(=O)c2sc3nc4c(cc3c2N)CN(Cc2ccccc2)CC4)cc1 -28%
CCC(C(=O)NC1CCCCC1)n1c(SCc2ccc(F)cc2)nc2ccncc21 (stereo not given) -21.2%
Nc1nc(N)c2nc(-c3ccccc3)c(N)nc2n1 -15.3%
CC(C)CCNC(=O)c1ccc2c(c1)N(Cc1cccc(Cl)c1)C(=O)c1ccccc1S2 -6.4%
CCCC(=O)n1nc(-c2ccco2)nc1NCc1ccccc1Cl -10.8%
O=C(Nc1nnc(S(=O)(=O)N2CCOCC2)s1)c1ccccc1Cl -19.9%
Cc1cc2nn(-c3ccc(F)cc3)nc2cc1NC(=O)c1cccc2ccccc12 -9.7%
O=C(Nc1ccc(F)c(Cl)c1)c1cc(S(=O)(=O)N2CCc3ccccc3C2)ccc1F -2.5%
O=C(Nc1ccc2nc(SCc3ccccc3)sc2c1)c1ccccc1F -9.32%
O=C(Nc1ccc2oc(-c3cccnc3)nc2c1)c1ccc(-c2ccc(OC(F)(F)F)cc2)o1 -13.5%
COc1ccc(N2CCN(C(=O)CN3C(=O)CSc4c3c(C)nn4-c3ccccc3)CC2)cc1 -13.3%
Cc1ccc(OCC(=O)Nc2ccc3c(c2)nc(CCNC(=O)c2ccco2)n3C)cc1 -15.3%
COc1ccc(OC)c(CCNC(=O)c2cc3c(=O)oc4ccc(C)cc4c3s2)c1 -27.8%
CC(=O)Nc1ccc(NC(=O)C2CCCN2S(=O)(=O)c2ccc3c(c2)CCCC(=O)N3)cc1 (stereo not given) -4.17%
CCn1c(=O)c(=O)n(CC)c2cc(N3CCCCC3)c(NC(=O)c3ccc(Cl)cc3)cc21 -18.3%
COc1ccc(CNC(=O)CN2N=C(c3ccccc3)CCC2=O)c(OC)c1 -7.96%
COCCCNc1nc2cc(OC)c(OC)cc2c2nc(-c3ccccc3)nn12 6.54%
Cc1ccccc1N1CC(C(=O)Nc2ccc(Br)cc2)CC1=O (stereo not given) -16%
COc1ccc(C(=O)NCc2nnc(SCC(=O)Nc3ccccc3)n2-c2ccccc2)cc1 -16%
Cc1ccc(-n2nnc(-c3nsc(NC(=O)c4cccc(Cl)c4)n3)c2C)cc1C -21.4%
O=C(CSc1n[nH]c(-c2ccccc2)n1)NCCCc1ccccc1 -0.824%
COc1cc(Cl)c(C)cc1NC(=O)c1ccc2c(SCC(=O)O)c3c(nc2c1)CCCC3 -16.8%
Cc1nnc(N2CCCC(C(=O)NCc3ccccc3F)C2)c2nn(-c3ccc(Cl)cc3)c(C)c12 (stereo not given) -13.3%
COc1ccc(NC(=O)CCSc2nc(-c3ccco3)cc(C(F)(F)F)n2)cc1 -6.22%
Cc1ccc(C)c(Nc2ncnc3onc(C)c23)c1 -4.55%
COc1ccc(NC(=O)CSc2ncccc2C(=O)O)cc1OC -13.5%
COc1ccc(-c2nc3cc(C(C)C)ccc3o2)cc1NC(=O)COc1ccc(C)cc1C -2.68%
CCN(CC)CCNC(=O)c1ccc2c(c1)NC(=O)C(CS(=O)(=O)Cc1cccc(Br)c1)N2 (stereo not given) 16%
O=C(Cn1c(=O)c2ccccc2n(CC(=O)Nc2ccc(F)cc2F)c1=O)NCCc1ccccc1 -15.2%
CCN(C(=O)c1cc2c(=O)oc3ccc(C)cc3c2s1)c1cc(OC)ccc1OC -7.43%
CCc1ccc(OCCCn2c(-c3ccc(Cl)cc3)nc3ccccc3c2=O)cc1 -5.08%
Cc1ccc(-c2nc3scc(CCNS(=O)(=O)c4ccc(F)c(C)c4)n3n2)cc1 3.28%
CCn1nc(C)c2c(-c3ccccc3)cc(=O)n(C(C)C(=O)NCc3cccc(OC)c3)c21 (stereo not given) -17%
CCC1CCCCN1CCCNC(=O)c1ccc2c(c1)N(Cc1ccccc1)C(=O)c1ccccc1S2(=O)=O (stereo not given) 2.58%
CCOc1cccc(CC(=O)N2CCc3c([nH]c4ccccc34)C2c2ccccc2)c1OCC (stereo not given) -9.58%
CCN(CC)c1ccc(CN(C(=O)Cc2coc3ccc(C)cc23)C2CCS(=O)(=O)C2)cc1 (stereo not given) -25.5%
COc1ccc(C(=O)Nc2cc(C(C)C)c(O)c(S(=O)(=O)c3ccc(Cl)cc3)c2C)cc1 -2.09%
CCN(Cc1ccccc1)Cc1c(O)ccc2c(=O)c(-c3ccccc3)c(C(F)(F)F)oc12 -18.6%
CCOc1ccccc1CNCc1c(C(=O)O)c(C)n(Cc2ccc(Cl)cc2)c1C -5.73%
c1ccc(-c2nnc(CN3CCN(c4ccccn4)CC3)o2)cc1 -8.94%
Cc1ccc(Cl)cc1NC(=O)CSc1ccc(C(=O)O)cn1 -9.82%
CCN(CC)c1ccc(NC(=O)c2cc(C)nc3c2c(C)nn3-c2cccc(F)c2)c(C)c1 -2.37%
CCC1CN(C(=O)N2CCC(C(=O)NCCc3ccccc3C)CC2)c2ccccc2O1 (stereo not given) -1.4%
O=C1CC(c2ccccc2)Sc2nc(-c3ccc(F)cc3)nn21 (stereo not given) -15.2%
O=C(c1[nH]c2ccccc2c1Sc1ccc(Cl)cc1)N1CCCCC1 -23.3%
Cc1ccc(OCC(=O)OCc2cc(=O)n3nc(C4CCCCC4)sc3n2)cc1C -8.29%
Cc1ccccc1NC(=O)Cn1c(=O)n(CC2CCC(C(=O)NCCc3ccccc3)CC2)c(=O)c2ccccc21 (stereo not given) -1.64%
CCOc1ccccc1C(=O)Nc1nc2c(s1)CC(C)CC2 (stereo not given) -8.88%
COc1ccc(Cl)cc1NC(=O)Cn1c(=O)n(CCC(=O)NCc2ccc3c(c2)OCO3)c(=O)c2ccccc21 -7.97%
Cc1ccc(N2C(=O)[C@@H]3CSC(c4ccc(F)cc4)N3C2=O)cc1 (stereo not given in full) -2.37%
Nc1c(C(=O)Nc2ccccc2)nnn1Cc1ccc(F)cc1Cl -18.8%
Cc1ccc(CNS(=O)(=O)c2ccc(-c3cc(C(F)(F)F)on3)s2)cc1 -9.87%
COc1cccc(-n2c(SCC(=O)c3ccc(Cl)cc3)nc3c([nH]c4ccccc43)c2=O)c1 -18.5%
CSc1ccc(CNC(=O)c2ccc(NC(=O)c3nsc4ccccc34)cc2)cc1 -24.8%
O=C(NCc1ccccc1Cl)NCc1noc2ccccc12 -17.4%
COC(=O)Cn1c(=O)c2c(nc3n2CCN3c2ccc(F)cc2)n(C)c1=O 3.73%
Cc1nn(C(C)(C)C)c(OC(=O)C(C)(C)C)c1Sc1ccccc1 -6.54%
Cc1ccc(C(=O)Nc2cc3c(cc2N2CCCC2)n(C)c(=O)c(=O)n3C)cc1 -3.9%
COc1cc(NC(=O)COCc2cc(-c3ccc(F)cc3)on2)cc(OC)c1OC -19.2%
O=C(Nc1ccc(Cl)c(-c2nc3cc(Cl)ccc3o2)c1)c1cc([N+](=O)[O-])ccc1N1CCOCC1 -18.7%
COc1cccc(NC(=O)C2CCCN(S(=O)(=O)c3ccc4[nH]c(=O)ccc4c3)C2)c1 (stereo not given) -9.18%
COc1ccccc1N1CCN(c2nc(-c3ccc(C)cc3)nc3ccccc23)CC1 -7.9%
CC(C)(C)NC(=O)[C@H]1CC[C@H]2[C@@H]3CC[C@H]4NC(=O)C=C[C@]4(C)[C@H]3CC[C@]12C -13.3%
Cn1cc(C(=O)N2CCN(c3cccc(C(F)(F)F)c3)CC2)c2c3ccccc3n(C)c2c1=O -13.2%
O=C(O)CCn1cnc2onc(-c3cc(F)cc(F)c3)c2c1=O 7.47%
CCCOc1ccc(Oc2nc(NCC(C)C)nc(N3CCOCC3)n2)nn1 -7.68%
CCOc1ccc(-c2cc3c(=O)n(CC(=O)NCc4ccc(Cl)cc4)ccn3n2)cc1 -3.88%
CC(=O)Nc1ccc(NC(=O)Cn2nc(C(=O)Nc3ccc(C)cc3)ccc2=O)cc1 -17.1%
Cc1ccc(-n2c(SCC(=O)O)nc3sc4c(c3c2=O)CCCC4)cc1 -25.6%
O=C(Nc1ccc(OCc2cc(=O)n3c4c(sc3n2)CCCC4)cc1)c1ccccc1 -8.76%
CC1CCc2nc3ncn(Cc4ccccc4F)c(=O)c3cc2C1 (stereo not given) -24.9%
COc1ccc(NC(=O)CN(c2ccc(C)cc2)S(=O)(=O)c2cccc3nonc23)cc1OC -12.7%
COc1ccc(N2CC(NC(=O)c3ccc4c(c3)OCO4)CC2=O)cc1 (stereo not given) -10.6%
CCOc1ccc(NC(=O)CN(c2ccc(Cl)cc2C)S(=O)(=O)c2ccccc2)cc1 -4.49%
CCOc1ccc(OCC)c(NS(=O)(=O)c2c(C(=O)N3CCC(C)CC3)c(C)n(C)c2C)c1 -25.9%
CCCOc1c(Cl)cc(C(=O)N(Cc2cccc(OC)c2)C2CCS(=O)(=O)C2)cc1Cl (stereo not given) -17.8%
COc1ccc(NC(=O)Cn2cnc3c(oc4ccccc43)c2=O)cc1OC -7.45%
CC(C)NC(=O)C1CCC(Cn2c(=O)c3sccc3n(CC(=O)NCc3ccccc3)c2=O)CC1 (stereo not given) -13.5%
CCOc1ccc(NC(=O)c2cnc(N3CCCCC3)c3ccccc23)cc1 -6.9%
CN(c1ccccc1)S(=O)(=O)c1nnc(NC(=O)c2ccccc2)s1 -17.6%
CC(C)n1cnc(S(=O)(=O)N2CCCC(C(=O)NCc3ccccc3Cl)C2)c1 (stereo not given) 3.87%
CCOC(=O)c1c(-c2ccccc2)csc1NC(=O)c1cc(-c2ccc(F)cc2)on1 -15%
O=C(NCc1ccc2c(c1)OCO2)c1ccc2c(c1)N(Cc1ccccc1)C(=O)c1ccccc1S2=O (stereo not given) 29.6%
Cc1ccsc1CN(C(=O)c1oc2cc(Br)ccc2c1C)C1CCS(=O)(=O)C1 (stereo not given) 2.48%
Cc1cc(C(=O)Nc2ccc(C(C)C)cc2)c2c(C)nn(-c3ccccc3)c2n1 6.87%
COC(=O)Cn1c(=O)c2cccn2c2cccnc21 -10.3%
CCOc1ccc(C(=O)c2c(N)c(-c3nc(-c4ccc5c(c4)OCO5)cs3)c3ccccn23)cc1 -6.07%
COc1ccc(Cn2c(=O)c3oc4ccccc4c3n(Cc3cccc(C)c3)c2=O)cc1 -16.1%
CCOc1ccccc1NC(=O)Cn1cc(C(=O)c2ccc(Cl)cc2)c(=O)c2ccc(C)nc21 -28.4%
COc1ccccc1CNc1ccc(-c2nc(-c3ccco3)no2)cc1[N+](=O)[O-] -1.5%
Cc1cccc2c(=O)cc(CSc3ccccc3NC(=O)c3cccc(F)c3)[nH]c12 -16.2%
CN(C)CCCN(C(=O)c1ccc2c(c1)OCCO2)c1nc2ccccc2s1 -28.1%
COc1cccc(CNC(=O)CSc2c3c(nc4cc(Cl)ccc24)CCCC3)c1 -10.1%

From PubChem BioAssay AID1159614 (National Center for Advancing Translational Sciences (NCATS), 2016)
